Data reported in PubChem BioAssay AID1468 (National Center for Advancing Translational Sciences (NCATS), 2008).
Screen size: about 280,000 compounds; about 1,100 (0.39%) were called active. Inconclusive results, whose numbers are uncertain, are shown with a selection of clear calls. Calls come from the whole dose curve; as a rule, active = well fitted inhibition curve with a large enough effect; inconclusive = small, poorly fitted or top-dose-only effect, or effect the other way; inactive = flat fitted curve, though single readings scatter. Where the call is inconclusive, the potency comes from a doubtful curve fit.

These molecules were tested against Microtubule-associated protein tau (Homo sapiens) (UniProt P10636) (assay: qHTS for Inhibitors of Tau Fibril Formation, Fluorescence Polarization). Details: K18 P301L tau heparin fibrillization, Alexa594 FP, 6 h; series mostly up to 57.7 µM; activity, negative = inhibition: at the top concentration.
In short: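 FP of Alexa 594-tau after heparin (20 uM) induction. Substrate: human K18 P301L, 15 uM unlabeled, 0.24 uM labeled. Buffer 100 mM sodium acetate pH 7. 6 hr, 37 C.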
% is set by controls: 0 for no effect and ±100 for the full control effect; potency is the fitted concentration of half-maximal effect; tags give direction and shape of the fitted curve.
Note: nearly all actives have a fitted effect of over 55% in size.

Sequence of UniProt P10636 (P10636 whole entry, looked up): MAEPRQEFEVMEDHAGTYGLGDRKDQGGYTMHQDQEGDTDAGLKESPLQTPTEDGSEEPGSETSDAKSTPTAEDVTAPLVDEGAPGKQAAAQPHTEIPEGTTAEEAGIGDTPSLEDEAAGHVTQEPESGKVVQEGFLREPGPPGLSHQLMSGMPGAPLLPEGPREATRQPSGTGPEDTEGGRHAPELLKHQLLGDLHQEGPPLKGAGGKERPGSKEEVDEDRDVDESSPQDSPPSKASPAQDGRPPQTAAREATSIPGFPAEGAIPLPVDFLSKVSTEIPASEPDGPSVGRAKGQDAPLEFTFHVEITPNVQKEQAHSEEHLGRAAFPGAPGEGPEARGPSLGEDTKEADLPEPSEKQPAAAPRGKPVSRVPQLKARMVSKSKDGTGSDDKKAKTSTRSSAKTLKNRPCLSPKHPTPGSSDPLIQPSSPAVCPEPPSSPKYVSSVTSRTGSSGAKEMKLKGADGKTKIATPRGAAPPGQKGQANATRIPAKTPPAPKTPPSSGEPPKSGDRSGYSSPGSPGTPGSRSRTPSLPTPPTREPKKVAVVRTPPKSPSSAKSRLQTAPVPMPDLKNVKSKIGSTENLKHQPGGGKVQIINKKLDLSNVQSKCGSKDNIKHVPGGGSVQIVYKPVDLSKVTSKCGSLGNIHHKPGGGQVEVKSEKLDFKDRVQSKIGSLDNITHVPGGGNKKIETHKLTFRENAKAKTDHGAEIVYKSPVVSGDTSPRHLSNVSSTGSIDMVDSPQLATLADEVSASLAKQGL

Potency, inconclusive:
Cc1ccc(C2=C/C(=C/c3cccnc3)C(=O)O2)c(C)c1 28.2 µM [inhibitor, single point]
CCOC(=O)c1ccc(S(=O)(=O)NNC(=O)COc2ccccc2C)cc1 5.01 µM [activator, single point]
COc1ccc(-c2csc3ncnc(Cl)c23)cc1 44.7 µM [inhibitor, single point]
Cc1ccc(C)c(Nc2nn3c(=O)c4ccc(C(=O)NCc5cccs5)cc4nc3s2)c1 0.891 µM [inhibitor, single point]
COc1ccc(-c2nnn(CC(=O)c3c[nH]c4ccccc34)n2)cc1OC 12.6 µM [inhibitor, partial curve, poor fit]
O=C(CSc1nc2ccccc2s1)N1c2ccccc2Sc2ccccc21 44.7 µM [inhibitor, single point]
CC(=O)Nc1ccc(S(=O)(=O)NCc2cccnc2)cc1 39.8 µM [inhibitor, single point]
O=S(=O)(Nc1ccc(-c2nnc(SCc3ccc(Cl)cc3)o2)cc1)c1ccccc1 17.8 µM [inhibitor, partial curve]
O=C(Nc1cccc(NC(=O)c2sc3ccccc3c2Cl)c1)c1ccco1 12.6 µM [inhibitor, single point]
CC(C)(C)C1CCc2c(sc(NC(=O)c3ccncc3)c2C(N)=O)C1 (stereo unspecified) 44.7 µM [inhibitor, single point]
Cc1ccn2c(Nc3ccccc3C)c(-c3ccccc3)nc2c1 10 µM [activator, partial curve]
COc1cccc(NC(=O)Cn2c(=O)n(Cc3ccco3)c(=O)c3cc(OC)c(OC)cc32)c1 20 µM [inhibitor, partial curve]
C[N+]1=C(/C=C/Nc2ccccc2Cl)C(C)(C)c2ccccc21 22.4 µM [activator, single point]
C[C@H](NC(=O)c1nc[nH]c1C(=O)NCc1ccc(CNC(=O)OC(C)(C)C)cc1)C(=O)OC(C)(C)C 1 µM [inhibitor, partial curve, poor fit]
O=C(COC(=O)[C@H](Cc1c[nH]c2ccccc12)NC(=O)c1cccs1)NCc1ccccc1 10 µM [activator, partial curve]
CCOc1cc(CNc2ccc(Br)cc2)cc(Br)c1OCC(=O)NC(C)(C)C 7.08 µM [activator, partial curve]
O=[n+]1cc(-c2ccccc2)n([O-])c2c1CCC2 8.91 µM [inhibitor, single point]
CCN(CC)c1ccc(/C=C2\C(=O)N(c3nnc(C)c(=O)[nH]3)N=C2C)cc1 20 µM [inhibitor, partial curve]
O=C(/C=C/c1ccccc1)CC(O)(c1ccccc1)C(F)(F)F (stereo unspecified) 22.4 µM [activator, single point]
CCOC(=O)c1c2c(c(=S)n(-c3ccccc3)c1N)CCC2 39.8 µM [inhibitor, single point]
Cc1cccc(N=Nc2c(O)[nH]c3ccc(F)cc23)c1 28.2 µM [inhibitor, partial curve]
COc1ccc(-c2nc(SCC(=O)Nc3cc(C)on3)n[nH]2)cc1 22.4 µM [inhibitor, single point]
CCOc1cc(C2Nc3cccc4cccc(c34)N2)ccc1O 39.8 µM [inhibitor, single point]
CCc1c(C#N)c(SCCC(=O)Nc2ccc(C)cc2)nc2c1C(=O)CC(C)(C)C2 12.6 µM [inhibitor, partial curve, poor fit]
Cc1ccc(NS(=O)(=O)c2ccc3c(c2)CCCN3C(=O)C2CCC2)cc1Cl 25.1 µM [inhibitor, single point]
Cc1nn(-c2ccccc2)c2sc(C(=O)Nc3ccccc3Br)cc12 12.6 µM [inhibitor, partial curve]
Cc1ccc(NC(=O)CN2C(=O)C3(SCC(=O)N3c3cccc(Cl)c3)c3ccccc32)cc1C (stereo unspecified) 35.5 µM [inhibitor, single point]
COCCNc1nc2c(S(=O)(=O)c3ccc(C)c(C)c3)nnn2c2ccc(Cl)cc12 14.1 µM [inhibitor, partial curve]
Cc1ccc(NC2Sc3ccccc3NC2=O)cc1 (stereo unspecified) 31.6 µM [inhibitor, single point]
O=C(CSc1ccc2nnc(-c3ccc(F)cc3)n2n1)NCC1CCCO1 (stereo unspecified) 8.91 µM [inhibitor, single point]
COC(=O)c1c(C)oc2ccc(N(C(=O)c3ccncc3)S(=O)(=O)c3ccc(C)cc3)cc12 44.7 µM [activator, single point]
Cn1c(N)c(C(=O)COC(=O)C23CC4CC(CC(C4)C2)C3)c(=O)n(C)c1=O 8.91 µM [inhibitor, single point]
COc1cc(NC(=O)c2cnc(N)s2)cc(C(=O)Nc2cccc(C(F)(F)F)c2)c1 20 µM [inhibitor, partial curve]
CCOc1ccc(-c2nc3c(c(SCC(=O)N4CCCCC4)n2)Cc2ccccc2O3)cc1 8.91 µM [inhibitor, partial curve]
Cc1nc(-c2ccc(C)c(S(=O)(=O)N3CCC(C(=O)NCc4ccc(Cl)cc4)CC3)c2)no1 2 µM [inhibitor, full curve, poor fit]
COc1ccc(OC)c(C2CC(=O)N3CN(c4ccc(C)c(Cl)c4)CSC3=C2C#N)c1 (stereo unspecified) 35.5 µM [inhibitor, single point]
COC(=O)c1c(NC(=O)Cc2cccs2)sc2c1CCC(C)C2 (stereo unspecified) 0.0251 µM [inhibitor, full curve, poor fit]
O=C(c1ccncc1)N(c1ccc2oc3c(c2c1)CCCC3)S(=O)(=O)c1cccc([N+](=O)[O-])c1 39.8 µM [activator, single point]
COc1cccc(C(c2c(O)cc(C)n(Cc3ccco3)c2=O)N2CCN(c3ccccc3)CC2)c1 (stereo unspecified) 14.1 µM [inhibitor, partial curve]
CN(C)c1ccc(N2C(=O)CSC2=S)cc1 10 µM [inhibitor, partial curve]
CCCCN(N=Nc1nonc1OC)c1nonc1OC 3.55 µM [inhibitor, single point]
ONC(=Nc1ccccc1)C(=Nc1ccccc1)NO 44.7 µM [inhibitor, single point]
O=C(CSc1nc2cc(Cl)ccc2s1)Nc1cccc(S(=O)(=O)N2CCOCC2)c1 15.8 µM [inhibitor, partial curve]
O=C(CSc1nnc(-c2ccc(F)cc2)o1)Nc1ccc(S(=O)(=O)N2CCCCCC2)cc1 11.2 µM [inhibitor, partial curve]
CCOc1ccc(-n2c(=O)c3c4c(sc3n(CC(=O)Nc3cccc(C(F)(F)F)c3)c2=O)CCCCC4)cc1 7.94 µM [inhibitor, partial curve]
Cc1cc(C)c(NC(=S)NCC2CCN(C(C)c3ccccc3)C2)c(C)c1 (stereo unspecified) 28.2 µM [inhibitor, single point]

activity, negative = inhibition, inactive:
CCN(Cc1ccccc1)C(=O)C(CC(C)C)NS(=O)(=O)c1ccc2c(c1)CCN2C(C)=O (stereo unspecified) 2.22%
Cc1cccn2cc(-c3ccc(Cl)cc3)nc12 -1.93%
Cc1cc(C)c(NC(=O)CN2C(=O)CCSc3ccc(S(=O)(=O)N4CCCC4)cc32)c(C)c1 -9.44%
Cc1ccc(-c2n[nH]c(=S)n2/N=C/c2sccc2C)cc1 -4.3%
COc1ccccc1C(=O)Nc1ccc(CN2CCCCC2)cc1 3.79%
Cc1ccccc1Nc1c(-c2ccc(N3CCOCC3)cc2)nc2ccc(Cl)cn12 4.52%
CN(C)c1ccc(NC(=O)C(=O)C2C(=O)Nc3ccccc32)cc1 (stereo unspecified) 6.37%
CN(c1ccc(C(=O)NC2CC3CCC2C3)cc1)S(C)(=O)=O (stereo unspecified) 6.56%
COc1ccccc1-c1cc(C(=O)N/N=C/C=C/c2ccccc2[N+](=O)[O-])c2ccccc2n1 14.8%
CC(=O)Nc1ccccc1 8.43%
Cc1ccc(-c2csc(=Nc3ccc(F)cc3)n2Cc2ccc3c(c2)OCO3)cc1C 4.14%
CC(C)(C)C(=O)Cn1c(=N)n(Cc2ccccc2)c2ccccc21 -3.29%
CCc1nnc(NC(=O)C2CCN(S(=O)(=O)Cc3ccccc3)CC2)s1 4.13%
COc1ccc(COC(=O)N/N=C2/C[C@@H](O)[C@@H](O)[C@@H]3[C@@H]4C(=O)N([C@@H](C)c5ccccc5)C(=O)[C@H]4CC[C@H]23)cc1 3.93% [at 11.6 µM]
Cc1c(C(=O)OC2CCCC2)[nH]c2c1C(=O)CC(c1ccco1)C2 (stereo unspecified) -6.19%
Cn1cnnc1SCC(=O)NC1CCCCC1 0.0044%
CSCCC1(C(=O)O)NC(c2ccccc2O)C2C(=O)N(C(C)C)C(=O)C21 (stereo unspecified) -0.452%
CCOC(=O)c1c(-c2cccs2)csc1NC(=O)CN(CC)CC 4.98%
COc1cccc(C(=O)/C=C2\Sc3ccccc3N2C)c1 2.29%
Nc1nc2ccccc2n1/N=C/c1ccc2c(c1)OCO2 1.16%
